Consider 8 sequences from the supplement of paper PMC12230231.

± gives the standard deviation of the averaged measurements. Restriction of a single-cycle SIVsab GFP reporter by TRIM5α v1-loop variants in CRFK cells. Human variants: read share among cells still uninfected after two challenges over input, higher = gained restriction. Rhesus variants: share among infected cells over input, higher = lost restriction. Reporter dose not given per row. No active / inactive call per row; the paper calls a change when both replicates lie above its controls (mean + 2 SD of stop or wild-type variants, or the top frameshift score). Residues outside the varied loop are taken from Swiss-Prot. The paper reads the human single-substitution scores as noise; they and the rhesus combinations repeat poorly (rank correlation 0.3 to 0.4), indel scores repeat only for the top variants, rhesus substitutions well (0.9).

The series relates to SIVsab (simian immunodeficiency virus of sabaeus monkeys), single-cycle GFP reporter, in CRFK cells. The series is described as follows: enrichment among uninfected cells over input (fold); higher = stronger restriction. The settings on record: library: insertions and deletions. Here is the method:
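Pools of CRFK cells expressing variants of the TRIM5α v1 loop were challenged with the single-cycle reporter, sorted by GFP and sequenced; mean of two replicates.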
Sequence “MASGILVNVKEEVTCPICLELLTQPLSLDCGHSFCQACLTANHKKSMLDKGESSCPVCRISYQPENIRPNRHVANIVEKLREVKLSPEGQKVDHCARHGEKLLLFCQEDGKVICWLCERSQEHRGHHTFLTEEVAREYQVKLQAALEMLRQKQQEAEELEADIREEKASWKTQIQYDKTNVLADFEQLRDILDWEESNELQNLEKEEEDILKSLTNSETEMVQQTQSLRELISDLEHRLQGSVMELLQGVDGVIKRTENVTLKKPETFPKNQRRVFRAPDLKGMLEVFRELTDVRRYWVDVTVAPNNISCAVISEDKRQVSSPKPQIIYGARGTRYQTFQTFVNFNYCTGILGSQSITSGKHYWEVDVSKKTAWILGVCAGFQPDAMCNIEKNENYQPKYGYWVIGLEEGVKCSAFQDSSFHTPSVPFIVPLSVIICPDRVGVFLDYEACTVSFFNITNHGFLIYKFSHCSFSQPVFPYLNPRKCGVPMTLCSPSS [human TRIM5α, 3-codon duplication at 337]” gave an enrichment of 0.219 ± 0.15.

The sequence “MASGILVNVKEEVTCPICLELLTQPLSLDCGHSFCQACLTANHKKSMLDKGESSCPVCRISYQPENIRPNRHVANIVEKLREVKLSPEGQKVDHCARHGEKLLLFCQEDGKVICWLCERSQEHRGHHTFLTEEVAREYQVKLQAALEMLRQKQQEAEELEADIREEKASWKTQIQYDKTNVLADFEQLRDILDWEESNELQNLEKEEEDILKSLTNSETEMVQQTQSLRELISDLEHRLQGSVMELLQGVDGVIKRTENVTLKKPETFPKNQRRVFRAPDLKGMLEVFRELTDVRRYWVDVTVAPNNISCAVISEDKRQVSSPKPQIIYGARGTRYQTFRGTRYQTFVNFNYCTGILGSQSITSGKHYWEVDVSKKTAWILGVCAGFQPDAMCNIEKNENYQPKYGYWVIGLEEGVKCSAFQDSSFHTPSVPFIVPLSVIICPDRVGVFLDYEACTVSFFNITNHGFLIYKFSHCSFSQPVFPYLNPRKCGVPMTLCSPSS [human TRIM5α, 8-codon duplication at 332]” showed an enrichment of 0.0514 ± 0.07.

In turn, “MASGILVNVKEEVTCPICLELLTQPLSLDCGHSFCQACLTANHKKSMLDKGESSCPVCRISYQPENIRPNRHVANIVEKLREVKLSPEGQKVDHCARHGEKLLLFCQEDGKVICWLCERSQEHRGHHTFLTEEVAREYQVKLQAALEMLRQKQQEAEELEADIREEKASWKTQIQYDKTNVLADFEQLRDILDWEESNELQNLEKEEEDILKSLTNSETEMVQQTQSLRELISDLEHRLQGSVMELLQGVDGVIKRTENVTLKKPETFPKNQRRVFRAPDLKGMLEVFRELTDVRRYWVDVTVAPNNISCAVISEDKRQVSSPKPQIIYGARGTRYQTFRYQTFVNFNYCTGILGSQSITSGKHYWEVDVSKKTAWILGVCAGFQPDAMCNIEKNENYQPKYGYWVIGLEEGVKCSAFQDSSFHTPSVPFIVPLSVIICPDRVGVFLDYEACTVSFFNITNHGFLIYKFSHCSFSQPVFPYLNPRKCGVPMTLCSPSS [human TRIM5α, 5-codon duplication at 335]” returned an enrichment of 0.737 ± 0.16. Next, “MASGILVNVKEEVTCPICLELLTQPLSLDCGHSFCQACLTANHKKSMLDKGESSCPVCRISYQPENIRPNRHVANIVEKLREVKLSPEGQKVDHCARHGEKLLLFCQEDGKVICWLCERSQEHRGHHTFLTEEVAREYQVKLQAALEMLRQKQQEAEELEADIREEKASWKTQIQYDKTNVLADFEQLRDILDWEESNELQNLEKEEEDILKSLTNSETEMVQQTQSLRELISDLEHRLQGSVMELLQGVDGVIKRTENVTLKKPETFPKNQRRVFRAPDLKGMLEVFRELTDVRRYWVDVTVAPNNISCAVISEDKRQVSSPKPQIIYGARGTRYQTFTFVNFNYCTGILGSQSITSGKHYWEVDVSKKTAWILGVCAGFQPDAMCNIEKNENYQPKYGYWVIGLEEGVKCSAFQDSSFHTPSVPFIVPLSVIICPDRVGVFLDYEACTVSFFNITNHGFLIYKFSHCSFSQPVFPYLNPRKCGVPMTLCSPSS [human TRIM5α, 2-codon duplication at 338]”: 1.03 ± 1.3; “MASGILVNVKEEVTCPICLELLTQPLSLDCGHSFCQACLTANHKKSMLDKGESSCPVCRISYQPENIRPNRHVANIVEKLREVKLSPEGQKVDHCARHGEKLLLFCQEDGKVICWLCERSQEHRGHHTFLTEEVAREYQVKLQAALEMLRQKQQEAEELEADIREEKASWKTQIQYDKTNVLADFEQLRDILDWEESNELQNLEKEEEDILKSLTNSETEMVQQTQSLRELISDLEHRLQGSVMELLQGVDGVIKRTENVTLKKPETFPKNQRRVFRAPDLKGMLEVFRELTDVRRYWVDVTVAPNNISCAVISEDKRQVSSPKPQIIYGARGTRYQTFTGILGSQSITSGKHYWEVDVSKKTAWILGVCAGFQPDAMCNIEKNENYQPKYGYWVIGLEEGVKCSAFQDSSFHTPSVPFIVPLSVIICPDRVGVFLDYEACTVSFFNITNHGFLIYKFSHCSFSQPVFPYLNPRKCGVPMTLCSPSS [human TRIM5α, 6-codon deletion at 340]”: 0.896 ± 0.27; “MASGILVNVKEEVTCPICLELLTQPLSLDCGHSFCQACLTANHKKSMLDKGESSCPVCRISYQPENIRPNRHVANIVEKLREVKLSPEGQKVDHCARHGEKLLLFCQEDGKVICWLCERSQEHRGHHTFLTEEVAREYQVKLQAALEMLRQKQQEAEELEADIREEKASWKTQIQYDKTNVLADFEQLRDILDWEESNELQNLEKEEEDILKSLTNSETEMVQQTQSLRELISDLEHRLQGSVMELLQGVDGVIKRTENVTLKKPETFPKNQRRVFRAPDLKGMLEVFRELTDVRRYWVDVTVAPNNISCAVISEDKRQVSSPKPQIIYGARGTRYQTFTRYQTFVNFNYCTGILGSQSITSGKHYWEVDVSKKTAWILGVCAGFQPDAMCNIEKNENYQPKYGYWVIGLEEGVKCSAFQDSSFHTPSVPFIVPLSVIICPDRVGVFLDYEACTVSFFNITNHGFLIYKFSHCSFSQPVFPYLNPRKCGVPMTLCSPSS [human TRIM5α, 6-codon duplication at 334]”: 1.82 ± 2.4. Next, “MASGILVNVKEEVTCPICLELLTQPLSLDCGHSFCQACLTANHKKSMLDKGESSCPVCRISYQPENIRPNRHVANIVEKLREVKLSPEGQKVDHCARHGEKLLLFCQEDGKVICWLCERSQEHRGHHTFLTEEVAREYQVKLQAALEMLRQKQQEAEELEADIREEKASWKTQIQYDKTNVLADFEQLRDILDWEESNELQNLEKEEEDILKSLTNSETEMVQQTQSLRELISDLEHRLQGSVMELLQGVDGVIKRTENVTLKKPETFPKNQRRVFRAPDLKGMLEVFRELTDVRRYWVDVTVAPNNISCAVISEDKRQVSSPKPQIIYGARGTRYQTFVCTGILGSQSITSGKHYWEVDVSKKTAWILGVCAGFQPDAMCNIEKNENYQPKYGYWVIGLEEGVKCSAFQDSSFHTPSVPFIVPLSVIICPDRVGVFLDYEACTVSFFNITNHGFLIYKFSHCSFSQPVFPYLNPRKCGVPMTLCSPSS [human TRIM5α, 4-codon deletion at 341]”: 0.646 ± 0.08. Then “MASGILVNVKEEVTCPICLELLTQPLSLDCGHSFCQACLTANHKKSMLDKGESSCPVCRISYQPENIRPNRHVANIVEKLREVKLSPEGQKVDHCARHGEKLLLFCQEDGKVICWLCERSQEHRGHHTFLTEEVAREYQVKLQAALEMLRQKQQEAEELEADIREEKASWKTQIQYDKTNVLADFEQLRDILDWEESNELQNLEKEEEDILKSLTNSETEMVQQTQSLRELISDLEHRLQGSVMELLQGVDGVIKRTENVTLKKPETFPKNQRRVFRAPDLKGMLEVFRELTDVRRYWVDVTVAPNNISCAVISEDKRQVSSPKPQIIYGARGTRYQTFVFNYCTGILGSQSITSGKHYWEVDVSKKTAWILGVCAGFQPDAMCNIEKNENYQPKYGYWVIGLEEGVKCSAFQDSSFHTPSVPFIVPLSVIICPDRVGVFLDYEACTVSFFNITNHGFLIYKFSHCSFSQPVFPYLNPRKCGVPMTLCSPSS [human TRIM5α, 1-codon deletion at 341]”, with 0.254 ± 0.011.
